Measurements: ChEMBL document CHEMBL4888484, “Replenishing the malaria drug discovery pipeline: Screening and hit evaluation of the MMV Hit Generation Library 1 (HGL1) against asexual blood stage Plasmodium falciparum ,using a nano luciferase reporter read-out” (2022)
The whole screen tested about 4,800 compounds, of which about 410 (8.5%) showed an effect of 50% or more. The list shows a part of the results.

test system: Plasmodium falciparum; assay: Confirmatory screen in NF54 pLDH assay, in single point, at 2uM, 72h; format: functional, Erythrocyte; conditions: timepoint 72 hour

Structure (SMILES) | % Inhibition [%]
Brc1ccc(NCc2[nH]nnc2-c2ccccc2)cc1 | 14
Cc1cccc(N2CCN(C(=O)CCC3=Nc4cc(C(F)(F)F)ccc4S(=O)(=O)N3)CC2)c1C | 12
CCOC(=O)N1CCN(C(=O)c2cnn3c(-c4ccc(C(C)C)cc4)ccnc23)CC1 | -5
Cn1cc(C(=O)N2N=CC[C@]2(O)C(F)(F)F)cn1 | 4
O=C(N[C@H](c1ccccc1)C1CC1)N1CCN(S(=O)(=O)c2cccc(F)c2)CC1 | 10
CC1(C)CCC(Nc2ccc(C(N)=O)nn2)CC1 | 92
CNc1nc(N2C[C@H](C)[C@@](O)(C3CC3)C2)nc2c1CCC2 | 1
Cc1onc(C(=O)N2CCC3(CC2)CC[C@]3(C)O)c1Cn1cccn1 | 7
O=C(Cn1c(=O)n(Cc2ccco2)c(=O)c2ccccc21)Nc1cccc(Br)c1 | 9
O=C(CCC1CCCCC1)Nc1ncccn1 | -9
Cc1cccc(OC[C@@H](O)Cn2cnc(C)c(C)c2=O)c1 | 5
Oc1csc(Cc2nc(C(F)(F)F)cs2)n1 | -4
CC(C)(C)c1ccnc(N[C@H]2CO[C@H]3[C@@H]2OC[C@@H]3NC(=O)NCc2ccccc2)n1 | 9
CC1CCN(c2nc3c(c(Oc4cccc(F)c4)n2)CN(Cc2ccccn2)CC3)CC1 | 21
COCCCN1CC(=O)N[C@@H]2CN(C(=O)CCc3cccnc3)CC[C@@H]2OCc2cccc(c2)Oc2cc(ccc2OC)C1 | 11
COCc1cc(C)n(CC#N)c(=O)c1C#N | 16
Cc1ccc(NC(=O)c2c(C)nc3sc(C(=O)NCc4ccccc4)c(N)c3c2-c2ccccc2Cl)c(C)c1 | 87
Cc1cccc(Nc2nc(-c3cnc(N4CCN(C)CC4)nc3C)cc(=O)[nH]2)c1 | 4
CCn1c(-c2cc(NC(=O)c3ccc4c(c3)OCO4)[nH]n2)cc2ccc(OC)cc21 | 4
O=S(=O)(c1ccc(Cl)s1)N1CCC(N2CCc3sccc3C2)CC1 | 44
CC(C)C(NC(=O)COc1ccccc1)C(=O)NCC(c1ccccc1Cl)c1c[nH]c2ccccc12 (stereo not given) | 36
CCC[C@H](C)c1nc(N2CCN(C(=O)Cc3ccc(OC)cc3)CC2)c2cnn(-c3ccccc3)c2n1 | 9
CCN(CC)c1ccc(NS(=O)(=O)c2ccc(N3C(=O)[C@@H](C)CS3(=O)=O)cc2)cc1 | 9
c1cn2cnnc2c(N(CC2CC2)CC2CC2)n1 | -5
Cc1ccc(N2CCN(c3ncc4c(=O)n(-c5ccc6c(c5)OCO6)c(=O)[nH]c4n3)CC2)cc1 | -16

Structure (SMILES) | % Inhibition [%]
Cc1cc(-n2c(C)cc(C(=O)Cn3c(C(F)(F)F)ccc(C(N)=O)c3=O)c2C)no1 | 23
COc1ccc2cc3n(c2c1)C[C@](C(=O)NC1CCCCCC1)(c1ccccc1)N(Cc1ccccc1Cl)C3=O | 13
COc1ccc([C@@H]2C=C(c3ccc(Cl)cc3)N=C3NC(NC(=O)c4ccccc4OC)=NN32)cc1 | 89
O=S(=O)(Cc1cc(O)n(-c2ccccc2)n1)c1ccccc1 | -4
CC[n+]1c(C)n(C2CCCCC2)c2ccc(C(=O)OC)cc21 | 1
O=S(=O)(N[C@H]1CCc2nnc(-c3ccc(F)cc3)n2C1)c1cccnc1 | 13
Cc1noc(-c2csc(-c3c[nH]cn3)n2)n1 | -1
CCCC[C@H](CC)C(=O)Nc1cc(C)ccn1 | 5
Cc1c(S(=O)(=O)N2CCN(C(=O)c3ccc(F)cc3)CC2)cnn1C(F)F | 4
CNc1nc(NCCc2ccccc2)nc2ccccc12 | 92
Cc1nn(C)c(NC(=O)c2ccc(C(C)(C)C)cc2)c1C1=CCCCC1 | -5
Cc1cc(C(F)(F)F)nn2cnnc12 | -18
Cc1ccc(F)cc1S(=O)(=O)N1CC[C@]2(CCN(c3cccnc3)C2)C1 | -20
Cc1ccccc1NC(=O)Cc1nnc(N)s1 | -4
COCCN1CCc2c(C)nc3c(-c4ccc(OC)c(OC)c4)cnn3c21 | 19
O=C(Nc1ccn(Cc2cccc(Cl)c2)n1)c1nn2cccnc2c1Cl | -24
Cc1c(NC(=O)c2ccccc2-c2ccccc2)ccc(N2CCCC2=O)c1NC(=O)c1ccccc1-c1ccccc1 | -15
CNC(=O)CNC(=O)c1cccc(Cl)c1 | 12
O=C(c1cc2ncccn2n1)N1CCc2ccccc2C1 | 11
CCc1ccc(CN2C(=O)c3c(C(=O)OC)ncn3C[C@@]2(C)C(=O)NC2CCCC2)cc1 | 13
Cc1cc(C(=O)N[C@@H](C)c2nc(-c3cccnc3)cs2)cc(O)n1 | 38
C[N+]1(CCCC(=O)c2ccc3c(c2)OCCO3)CCC(c2ccccc2)C1 (stereo not given) | 46
CCc1ccc(-c2n[nH]c3c2cnc2ccc(OC)cc23)cc1 | 7
CCCC(=O)Nc1ccc(N2CCN(CC(=O)N(CC)CC)CC2)cc1C(=O)O | 3
O=C1CC(C(=O)N2CCCCC2c2nc(-c3ccccc3)c[nH]2)CN1 (stereo not given) | 16

Structure (SMILES) | % Inhibition [%]
CCc1ccc(NC(=O)Cn2c(=O)ncc3cc(S(=O)(=O)N4CCCC[C@@H]4C)ccc32)cc1 | 11
O=S(=O)(c1ccc(Cl)cc1)N1CCC(c2cc(-c3cccc(C(F)(F)F)c3)[nH]n2)CC1 | 0
C[C@H]1CC(C)(C)N(C)c2ccc(/C=C/c3c(C(=O)O)cnc4ccnn34)cc21 | 15
CCCn1nc(-n2cnnc2)c(NC(=O)c2ccc3c(c2)OCO3)c1C | 7
CC[C@](C)(NC(=O)Nc1cncnc1OC)c1nc(C)cs1 | 12
O=c1ccc(F)cn1Cc1csc(C2CCCC2)n1 | 5
Cn1ccc(C(=O)Nc2ccc(-c3ccccc3)cn2)cc1=O | -11
Cc1ccc2nc(O)c3nnc(C)n3c2c1 | 15
O=S(=O)(Nc1nncs1)c1cccs1 | -10
CC(C)(C)c1ccc(C(=O)N[C@H]2C[C@@H]3CC[C@H]2C3)cc1 | 10
Cc1[nH]ccc(=O)c1Cc1c(Cl)cccc1Cl | -8
O=c1nc2n(nc1-c1ccccc1)C1(CCC1)Nc1ccccc1-2 | 60
c1ccc(CC2=NCCc3ccccc32)cc1 | 44
Cc1ncc(CN(C)[C@@H](C)C(=O)Nc2ccc3c(c2)OC2(CCCCC2)O3)s1 | 10
O=C(Nc1ccc2c(c1)OCCO2)N1CCC(O)CC1 | 7
O=C(CN1CCC2(CC1)NC(c1ccc(OC(F)(F)F)cc1)=NO2)NCc1ccc(F)cc1 | 8
CN1CCN(c2ccc(F)cc2C(=O)NCc2ccc3cnn(C)c3c2)CC1 | -23
Oc1cc(-c2ccc3ccccc3c2)[nH]n1 | -6
O=C(OCC(=O)N1CCN(Cc2ccccc2)CC1)c1nccc2ccccc12 | 10
CC1CCCC(C)N1C(=O)CN(C)c1cccc2cccnc12 (stereo not given) | 4
COc1ccc(-n2nc(C(=O)N3CCN(c4ncccn4)CC3)c(=O)cc2OC)cc1 | -29
O=c1c2cc(F)c(F)cc2ncn1C[C@@H](O)CC1CCCC1 | 9
CN(CC[C@H](O)C(F)(F)F)Cc1ccccc1 | -3
CCc1ccc(CN2C(=O)c3c(C(=O)OC)ncn3C[C@@]2(C)C(=O)NC2CCCCCC2)cc1 | 14
COc1cc(C(=O)NCCN2CCOCC2)cc2occc12 | 1

Structure (SMILES) | % Inhibition [%]
Cc1ccc(N2C(=O)C3C4C=CC(C4=C4CCCC4)C3C2=O)c(C)c1 (stereo not given) | -11
CC1CC(C)(C)CCC1NC(=O)NC1CCN(C)C1=O (stereo not given) | -11
Cc1cc(C)cc(Nc2nc(C)cc(=O)n2CC(=O)Nc2ccc(C)cc2Br)c1 | -8
Cc1ccc(C(=O)NC2c3ccccc3CCC2n2ccnc2)c(=O)[nH]1 (stereo not given) | 0
CC(C)(C)NC(=O)C1CCN(C[C@@H]2CC=CCC2)CC1 | 10
CN(CCCNC(=O)C(=O)Nc1ccn(C)n1)c1cccc(F)c1 | 10
Cc1nnc(NC(=O)[C@H](C)c2ccc(-c3ccccc3)c(F)c2)s1 | -16
CCN1CCC(N(C)C(=O)Cc2csc(-c3cccnc3)n2)CC1 | -8
Cc1ccc(S(=O)(=O)Cc2nc(-c3ccc(C(=O)NCc4ccccc4C)cc3)oc2C)cc1 | -23
CC(C)(NC(=O)OCc1ccccc1)/C(N)=N/O | 4
CCc1ccc(C2CCN(C(C(=O)O)c3cccnc3)C2)cc1 (stereo not given) | -4
Cc1ccc(NC(=O)c2nnn(CC(=O)Nc3ccc4c(c3)OCO4)c2C)cc1F | 6
O=C(Nc1ccccc1)Nc1nnc[nH]1 | 10
COCc1cc(=O)n(CC(=O)Nc2ccc(OC)cc2)c(N2CCCC2)n1 | -9
COc1ccccc1Nc1c(-c2cccs2)nc2ccccn12 | 3
COCCN1CCCCc2cc(C(=O)NC[C@H]3CCN(CC(C)C)C3)sc21 | -9
Cc1cc(C)cc(Nc2nc(C)cc(=O)n2CC(=O)N2CCN(c3ccc(F)cc3)CC2)c1 | -6
O=C(NCc1ncc[nH]1)C1(Cc2nc3ccccc3[nH]2)CCCC1 | 5
O=C(CCn1nc(-c2ccc3c(c2)OCO3)ccc1=O)NC1CCCCC1 | -6
Clc1ccc(-c2noc(CN(Cc3cccs3)Cc3cccs3)n2)cc1 | 6
CCOn1c(-c2ccc(F)cc2)nc2c1OC=NN2OCc1ccccc1 | 7
CCNC(=O)N[C@H]1CO[C@H]2[C@@H]1OC[C@@H]2Nc1nccc(-c2ccc(-c3ccccc3)cc2)n1 | 9
C[C@@H](C1CC1)N(C)S(=O)(=O)Cc1cc(Cl)cc(Cl)c1 | 2
COc1ccc(C(=O)Nc2c(C)nc3ncnn3c2O)cc1 | 8
Cc1c(C2CC2)n[nH]c1NC(=O)C1CC1c1ccccc1 (stereo not given) | 12
